Results taken from the supplement of paper PMC3334620.
Whole data set: some 33,000 sequences, median “E-score (-0.5 to 0.5)” near -0.053, cut for the highest 2% near 0.37. This is one part of the list.

Target: Hap1 (UniProt P0CE41)
Experiment: PBM E-score (8-mer binding enrichment) (E-score (-0.5 to 0.5)); higher = stronger / more preferred TF binding; most listed sequences are background and not binding sites
Details: protein concentration: 200 nM; construct: GST-DNA-binding domain
Procedure, shortened: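 Full-length yeast transcription factors or their DNA-binding domains, GST-tagged and expressed with PURExpress, were applied at about 100-200 nM to universal all-10-mer Agilent arrays. These arrays had been made double-stranded by primer extension on fresh or once-stripped slides. Detection used fluorescent anti-GST, normalisation used masliner, and E-scores for ungapped eight-base words pooled with reverse complements came from the Universal PBM Analysis Suite.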

UniProt P0CE41, sequence (P0CE41 whole entry): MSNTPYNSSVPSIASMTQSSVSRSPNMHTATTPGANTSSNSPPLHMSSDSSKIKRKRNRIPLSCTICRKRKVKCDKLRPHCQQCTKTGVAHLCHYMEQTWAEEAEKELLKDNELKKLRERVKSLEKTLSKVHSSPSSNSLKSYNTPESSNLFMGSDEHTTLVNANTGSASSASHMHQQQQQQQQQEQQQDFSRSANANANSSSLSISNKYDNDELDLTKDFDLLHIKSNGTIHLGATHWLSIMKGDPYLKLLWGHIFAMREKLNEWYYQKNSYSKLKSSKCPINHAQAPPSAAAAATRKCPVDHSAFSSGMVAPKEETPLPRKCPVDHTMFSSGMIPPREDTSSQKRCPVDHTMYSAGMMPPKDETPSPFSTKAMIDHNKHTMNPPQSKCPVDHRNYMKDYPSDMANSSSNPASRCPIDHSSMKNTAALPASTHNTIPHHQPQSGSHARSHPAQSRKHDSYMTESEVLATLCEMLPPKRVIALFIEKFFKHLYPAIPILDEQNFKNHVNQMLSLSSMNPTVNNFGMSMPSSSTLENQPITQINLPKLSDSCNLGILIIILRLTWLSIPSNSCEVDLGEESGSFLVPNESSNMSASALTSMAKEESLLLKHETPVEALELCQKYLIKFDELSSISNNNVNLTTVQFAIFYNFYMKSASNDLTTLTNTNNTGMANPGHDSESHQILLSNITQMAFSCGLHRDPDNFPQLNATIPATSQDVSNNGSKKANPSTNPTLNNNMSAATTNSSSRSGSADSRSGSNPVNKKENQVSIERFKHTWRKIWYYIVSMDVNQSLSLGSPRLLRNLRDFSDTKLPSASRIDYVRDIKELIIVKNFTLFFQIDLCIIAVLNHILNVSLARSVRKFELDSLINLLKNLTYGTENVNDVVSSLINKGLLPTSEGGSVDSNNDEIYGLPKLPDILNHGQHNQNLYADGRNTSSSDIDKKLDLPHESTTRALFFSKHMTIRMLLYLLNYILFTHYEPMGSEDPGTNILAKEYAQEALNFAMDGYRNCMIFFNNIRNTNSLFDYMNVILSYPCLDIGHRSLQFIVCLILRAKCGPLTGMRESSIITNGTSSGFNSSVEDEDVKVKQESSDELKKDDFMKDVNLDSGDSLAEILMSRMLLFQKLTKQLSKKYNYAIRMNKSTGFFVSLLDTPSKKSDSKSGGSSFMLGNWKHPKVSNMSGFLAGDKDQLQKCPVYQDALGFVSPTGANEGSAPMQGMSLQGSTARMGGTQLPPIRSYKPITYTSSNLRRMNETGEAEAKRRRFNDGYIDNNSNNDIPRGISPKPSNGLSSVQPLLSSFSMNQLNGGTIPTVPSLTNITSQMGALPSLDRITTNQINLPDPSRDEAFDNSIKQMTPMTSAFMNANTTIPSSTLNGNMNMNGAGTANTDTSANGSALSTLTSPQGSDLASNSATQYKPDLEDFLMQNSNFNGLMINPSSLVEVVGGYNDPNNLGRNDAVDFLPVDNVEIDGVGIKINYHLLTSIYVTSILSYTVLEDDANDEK

| Sequence | PBM E-score |
| --- | --- |
| CAAGACAG | -0.115 |
| ACGAGTTC | -0.155 |
| CTACCTTC | -0.121 |
| ACACAGAT | -0.213 |
| CCCAGCGA | -0.136 |
| GGCCAACA | 0.139 |
| GCCGCCGC | 0.0563 |
| ATGCCGAC | 0.292 |
| ATGGGGAC | 0.0558 |
| ACCTCTCA | 0.00256 |
| CTACTAAC | -0.214 |
| AACGCCAC | -0.0199 |
| CATGATTA | -0.018 |
| CAAAGACG | 0.0782 |
| ACTACCCG | 0.187 |
| CTCATCGA | -0.0785 |
| AAAGCAGC | -0.0887 |
| GAACGCGC | 0.216 |
| GCGACGAC | -0.0585 |
| AGAGTGGA | -0.26 |
| CCATAGAG | -0.135 |
| GCCGTTCA | 0.0678 |

| Sequence | PBM E-score |
| --- | --- |
| GAGACCTA | -0.0894 |
| ACCACAAT | -0.00337 |
| AATTCATG | -0.0646 |
| CCACAAGG | -0.36 |
| GCGGATCC | 0.23 |
| CCACTAGC | -0.221 |
| CAATGCCC | 0.114 |
| CACCGATC | 0.22 |
| AGGTGAAA | -0.0443 |
| ACTCACAA | -0.108 |
| AGATCTAA | -0.137 |
| AGAGTGCG | -0.0864 |
| GCCCGTAA | 0.26 |
| CAGAGAAG | -0.111 |
| GGAATAGA | 0.0173 |
| GAAGTTGA | 0.00907 |
| AAGGGTAT | 0.0113 |
| CGACCGAA | 0.378 |
| ATGAACAG | -0.176 |
| CAGGCGTC | -0.104 |
| ACTGACAG | -0.0855 |
| AGGCTGAC | -0.308 |

| Sequence | PBM E-score |
| --- | --- |
| CCATAATC | -0.0843 |
| ATGCCGTG | -0.155 |
| AAGCTAGC | -0.0783 |
| CAATCGAC | -0.139 |
| ACGAGAGT | -0.156 |
| GTTATTTA | 0.0775 |
| AAAGCTGA | -0.106 |
| AGCTTAGC | -0.126 |
| AGGTTTCC | -0.0729 |
| AGAGGAAC | -0.241 |
| CTCCTCCA | -0.216 |
| ATGAATAG | -0.0153 |
| AGCGTTAG | -0.0665 |
| GTGAAAAA | 0.0524 |
| CCCTTAGG | -0.297 |
| CGGCCTGA | 0.183 |
| AAGCGGCC | 0.116 |
| ATTTAGAA | -0.0389 |
| CCGTACCG | 0.242 |
| CTGGTCAA | -0.0379 |
| CTAGACCA | -0.239 |
| ACGGAAGA | 0.155 |

| Sequence | PBM E-score |
| --- | --- |
| ATATTATA | -0.0547 |
| ATACACCG | 0.247 |
| CACTCCTC | -0.127 |
| CTACGACC | -0.0673 |
| AGCTCCGG | 0.43 |
| AGGAGCTC | -0.15 |
| AACCATTA | 0.0172 |
| CCGGTCTA | 0.211 |
| GAGGATGA | -0.179 |
| AGACCATC | -0.179 |
| CAGGTCTA | -0.217 |
| CACGAGCG | -0.255 |
| GGACCCAC | 0.085 |
| GGCACAAA | 0.141 |
| GACAAAGA | -0.0849 |
| CAGTGTAA | -0.0473 |
| AGTCTCGA | -0.17 |
| CTTCTCCC | -0.102 |
| GTCCAGCA | -0.333 |
| CTGATACC | -0.23 |
